# The supplement of paper PMC8728848
# The other results are listed elsewhere or left out.
# B1: PX15618B-bfa-464-25-464 (Bacteroides fragilis) (protein)
# chain: DQEPPLYVNENDIFTSPTRIEATLNGLYAAIKNTGTKSLMGGKSYLVFDNRGDDVINISNNLVTLFNTYNMNVGITDAENADTWTYAYLAINKVNTFLQSLEGAREVAGENYDRYVQEAKFVRALAYYYLNNLYPTPYSVNPDAKSVPLRLTAEAGTENNNMPRSTVKQIYEHILSDLENISALDTEVNTYTGVTHATQAAANMLKMRVYMAMNEWDKAITAGELVTGYSLPEDVTLIYKAPYFSQESIFSLPMADTNIPNTQQSLAEYYYDGKIMLIDTKSGIMSKPDYSLATDKRIIAFKGEKDLLMKFTDAKTKLQWVPIFRYAETLLDLAECYANKAGGEATAKSLLKQVRGRSVDAATDPLNIDNLSGDALKEAIYNEKRLEFIGEGIRGIDIMRRGEHFIKVGENETINVGPSDEKYTWPIPQVELLLNKDINK
# Assays:
# Assay in all cases: glycan array binding signal (z-score within array); higher = stronger binding
# Details in all cases: glycan notation: IUPAC condensed, linker removed
# Gal(a1-3)Gal(b1-3)GlcNAc = molecular target: Gal(a1-3)Gal(b1-3)GlcNAc
# Summary of the method: (§1)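 Glycan array data came from 3228 arrays in the Consortium for Functional Glycomics database, and only arrays with an available protein sequence were kept. Glycan names were put into IUPAC-condensed notation, and columns mapping to the same glycan were averaged. The binding signal is a within-array Z-score, averaged across arrays of one protein sequence run at different concentrations or buffers and across linkers. A negative Z-score can be read as non-binding.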
# [1] = molecular target: Gal(a1-3)Gal(b1-3)GlcNAc(b1-2)Man
# Summary of the method: as §1
# [2] = molecular target: Gal(a1-3)Gal(b1-3)GlcNAc(b1-2)Man(a1-3)[Gal(a1-3)Gal(b1-3)GlcNAc(b1-2)Man(a1-6)]Man(b1-4)GlcNAc(b1-4)GlcNAc
# Summary of the method: as §1
# [3] = molecular target: Gal(a1-3)Gal(b1-3)GlcNAc(b1-3)GalNAc
# Summary of the method: as §1
# [4] = molecular target: Gal(a1-3)Gal(b1-3)GlcNAc(b1-6)GalNAc
# Summary of the method: as §1
# [5] = molecular target: Gal(a1-3)Gal(b1-3)[Fuc(a1-4)]GlcNAc(b1-2)Man(a1-3)[Gal(a1-3)Gal(b1-3)[Fuc(a1-4)]GlcNAc(b1-2)Man(a1-6)]Man(b1-4)GlcNAc(b1-4)GlcNAc
# Summary of the method: as §1
# Gal(a1-3)Gal(b1-4)Glc = molecular target: Gal(a1-3)Gal(b1-4)Glc
# Summary of the method: as §1
# Gal(a1-3)Gal(b1-4)GlcNAc = molecular target: Gal(a1-3)Gal(b1-4)GlcNAc
# Summary of the method: as §1
# [6] = molecular target: Gal(a1-3)Gal(b1-4)GlcNAc(b1-2)Man
# Summary of the method: as §1
# [7] = molecular target: Gal(a1-3)Gal(b1-4)GlcNAc(b1-2)Man(a1-3)[Gal(a1-3)Gal(b1-4)GlcNAc(b1-2)Man(a1-6)]Man(b1-4)GlcNAc(b1-4)GlcNAc
# Summary of the method: as §1
# [8] = molecular target: Gal(a1-3)Gal(b1-4)GlcNAc(b1-3)GalNAc
# Summary of the method: as §1
# [9] = molecular target: Gal(a1-3)Gal(b1-4)GlcNAc(b1-6)GalNAc
# Summary of the method: as §1
# [10] = molecular target: Gal(a1-3)Gal(b1-4)[Fuc(a1-3)]GlcNAc
# Summary of the method: as §1
# [11] = molecular target: Gal(a1-3)Gal(b1-4)[Fuc(a1-3)]GlcNAc(b1-2)Man(a1-3)[Gal(a1-3)Gal(b1-4)[Fuc(a1-3)]GlcNAc(b1-2)Man(a1-6)]Man(b1-4)GlcNAc(b1-4)GlcNAc
# Summary of the method: as §1
# Gal(a1-3)GalNAc = molecular target: Gal(a1-3)GalNAc
# Summary of the method: as §1
# [12] = molecular target: Gal(a1-3)[Gal(a1-4)]Gal(b1-4)GlcNAc
# Summary of the method: as §1
# [13] = molecular target: Gal(a1-4)Gal(b1-3)GlcNAc(b1-2)Man(a1-3)[Gal(a1-4)Gal(b1-3)GlcNAc(b1-2)Man(a1-6)]Man(b1-4)GlcNAc(b1-4)GlcNAc
# Summary of the method: as §1
# Gal(a1-4)Gal(b1-4)Glc = molecular target: Gal(a1-4)Gal(b1-4)Glc
# Summary of the method: as §1
# Gal(a1-4)Gal(b1-4)GlcNAc = molecular target: Gal(a1-4)Gal(b1-4)GlcNAc
# Summary of the method: as §1
# [14] = molecular target: Gal(a1-4)Gal(b1-4)GlcNAc(b1-2)Man(a1-3)[Gal(a1-4)Gal(b1-4)GlcNAc(b1-2)Man(a1-6)]Man(b1-4)GlcNAc(b1-4)GlcNAc
# Summary of the method: as §1
# [15] = molecular target: Gal(a1-4)Gal(b1-4)GlcNAc(b1-3)Gal(b1-4)Glc
# Summary of the method: as §1
# Gal(a1-4)GlcNAc = molecular target: Gal(a1-4)GlcNAc
# Summary of the method: as §1
# Gal(a1-6)Glc = molecular target: Gal(a1-6)Glc
# Summary of the method: as §1
# Gal(b1-2)Gal = molecular target: Gal(b1-2)Gal
# Summary of the method: as §1
# Gal(b1-3)Gal = molecular target: Gal(b1-3)Gal
# Summary of the method: as §1
# Gal(b1-3)Gal(b1-4)GlcNAc = molecular target: Gal(b1-3)Gal(b1-4)GlcNAc
# Summary of the method: as §1
# Gal(b1-3)GalNAc = molecular target: Gal(b1-3)GalNAc
# Summary of the method: as §1
# [16] = molecular target: Gal(b1-3)GalNAc(a1-3)[Fuc(a1-2)]Gal(b1-4)Glc
# Summary of the method: as §1
# [17] = molecular target: Gal(b1-3)GalNAc(a1-3)[Fuc(a1-2)]Gal(b1-4)GlcNAc
# Summary of the method: as §1
# Gal(b1-3)GalNAc(b1-3)Gal = molecular target: Gal(b1-3)GalNAc(b1-3)Gal
# Summary of the method: as §1
# [18] = molecular target: Gal(b1-3)GalNAc(b1-3)Gal(a1-4)Gal(b1-4)Glc
# Summary of the method: as §1
# [19] = molecular target: Gal(b1-3)GalNAc(b1-4)Gal(b1-4)Glc
# Summary of the method: as §1
# [20] = molecular target: Gal(b1-3)GalNAc(b1-4)[Neu5Ac(a2-3)]Gal(b1-4)Glc
# Summary of the method: as §1
# Gal(b1-3)GlcNAc = molecular target: Gal(b1-3)GlcNAc
# Summary of the method: as §1
# [21] = molecular target: Gal(b1-3)GlcNAc(a1-3)Gal(b1-4)GlcNAc
# Summary of the method: as §1
# [22] = molecular target: Gal(b1-3)GlcNAc(a1-6)Gal(b1-4)GlcNAc
# Summary of the method: as §1
# Gal(b1-3)GlcNAc(b1-2)Man = molecular target: Gal(b1-3)GlcNAc(b1-2)Man
# Summary of the method: as §1
# [23] = molecular target: Gal(b1-3)GlcNAc(b1-2)Man(a1-3)[Gal(b1-3)GlcNAc(b1-2)Man(a1-6)]Man(b1-4)GlcNAc(b1-4)GlcNAc
# Summary of the method: as §1
binder,measurement,setting,value
B1,glycan array binding signal (z-score),Gal(a1-3)Gal(b1-3)GlcNAc,-0.21
same,glycan array binding signal (z-score),[1],0.341
same,glycan array binding signal (z-score),[2],0.622
same,glycan array binding signal (z-score),[3],0.054
same,glycan array binding signal (z-score),[4],0.328
same,glycan array binding signal (z-score),[5],0.331
same,glycan array binding signal (z-score),Gal(a1-3)Gal(b1-4)Glc,-0.53
same,glycan array binding signal (z-score),Gal(a1-3)Gal(b1-4)GlcNAc,0.209
same,glycan array binding signal (z-score),[6],0.039
same,glycan array binding signal (z-score),[7],-0.105
same,glycan array binding signal (z-score),[8],-0.653
same,glycan array binding signal (z-score),[9],-0.037
same,glycan array binding signal (z-score),[10],-0.436
same,glycan array binding signal (z-score),[11],0.617
same,glycan array binding signal (z-score),Gal(a1-3)GalNAc,-0.322
same,glycan array binding signal (z-score),[12],0.76
same,glycan array binding signal (z-score),[13],-0.128
same,glycan array binding signal (z-score),Gal(a1-4)Gal(b1-4)Glc,0.822
same,glycan array binding signal (z-score),Gal(a1-4)Gal(b1-4)GlcNAc,-0.055
same,glycan array binding signal (z-score),[14],-0.514
same,glycan array binding signal (z-score),[15],-0.294
same,glycan array binding signal (z-score),Gal(a1-4)GlcNAc,-0.489
same,glycan array binding signal (z-score),Gal(a1-6)Glc,0.06
same,glycan array binding signal (z-score),Gal(b1-2)Gal,-0.364
same,glycan array binding signal (z-score),Gal(b1-3)Gal,0.33
same,glycan array binding signal (z-score),Gal(b1-3)Gal(b1-4)GlcNAc,-0.449
same,glycan array binding signal (z-score),Gal(b1-3)GalNAc,-0.232
same,glycan array binding signal (z-score),[16],-0.611
same,glycan array binding signal (z-score),[17],-0.763
same,glycan array binding signal (z-score),Gal(b1-3)GalNAc(b1-3)Gal,0.228
same,glycan array binding signal (z-score),[18],0.339
same,glycan array binding signal (z-score),[19],0.013
same,glycan array binding signal (z-score),[20],-0.288
same,glycan array binding signal (z-score),Gal(b1-3)GlcNAc,1.37
same,glycan array binding signal (z-score),[21],-0.392
same,glycan array binding signal (z-score),[22],0.115
same,glycan array binding signal (z-score),Gal(b1-3)GlcNAc(b1-2)Man,0.431
same,glycan array binding signal (z-score),[23],-0.247
